In article PMC12040169 (PLOS Biology, 2025):
Some of the results follow.

What follows are compounds tested on T1, C. trachomatis L2/434/Bu expressing GFP (CTL2-GFP). Conditions: total inclusion area; 28.5 h, 10 µM; inhibitor.
T1 construct: L2/434/Bu GFP intracellular growth in HeLa cells
Parameters: species or system HeLa; C. trachomatis total inclusion area by high-content imaging, normalised to DMSO
Method in brief: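 Host cell viability was gauged from Hoechst-stained nuclei counts, while chlamydial growth was taken from total inclusion area and inclusion number per well. Cells were fixed and imaged by high-content microscopy once bulk GFP and resorufin fluorescence had been measured.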

| Compound | % of control remaining |
| --- | --- |
| CCn1c(SCC(=O)Nc2ccc([N+](=O)[O-])cc2)nnc1C(NC(=O)c1ccccc1)C(C)C (stereo not shown) [CBK107508] | 96.0877 |
| CCCN[C@@H]1CCc2cc(CNC(=O)c3ccc(C#N)cc3)ccc2C1 [CBK010211C] | 70.5767 |
| Cc1ccccc1N1C(=O)/C(=C/c2cn(Cc3ccccc3[N+](=O)[O-])c3ccccc23)SC1=S [CBK265101] | 116.241 |
| Cc1cc2c(=O)n(CC(=O)NCc3ccco3)cnc2s1 [CBK071898] | 100.599 |
| O=c1[nH]c2ncc(-c3ccoc3)nc2n1Cc1cccs1 [CBK064647] | 166.33 |
| Cc1cc(NC(=O)c2cscn2)c2ccccc2n1 [CBK116275] | 98.5749 |
| N#Cc1cccc(C(=O)N2CCC(NC(=O)c3ccc(F)cc3)CC2)c1 [CBK305717] | 96.956 |
| Cc1cccc(-c2noc(CN(C(=O)c3ccc4c(c3)OCO4)C(C)C)n2)c1 [CBK268817] | 86.0988 |
| Cc1nn(-c2ccc(F)cc2)c(C)c1CNC(=O)CCC1CCCO1 (stereo not shown) [CBK281456] | 108.501 |
| Cc1oc(NC(=O)CN(C)Cc2cccc(F)c2)c(C#N)c1C [CBK305609] | 58.7972 |
| CCC(CC)C(=O)N1CCC2(CC1)Nc1cccnc1-n1cccc12 [CBK284508] | 93.4702 |
| CN(c1ncc(-c2cc3ccccc3o2)cc1C(=O)Nc1ccc2c(c1)OCO2)S(C)(=O)=O [CBK106464] | 101.991 |
| O=C(Nc1ccccn1)c1cc2ccccc2oc1=O [CBK287354] | 95.3968 |
| CN(Cc1ccccc1)S(=O)(=O)c1ccc(OCC(=O)O)cc1 [CBK276426] | 99.823 |
| Cc1ccc(Oc2ccc(S(=O)(=O)N3CCOCC3)cc2C(=O)O)cc1 [CBK286748] | 82.0211 |
| CN(C)c1cccc(Nc2ccc(-c3cccc(C(=O)O)c3)cn2)c1 [CBK036879] | 146.145 |
| CS(=O)(=O)N1CCN(c2ccccc2NC(=O)c2cccnc2)CC1 [CBK267604] | 95.0749 |
| COc1ccc(CN2CCCN(S(=O)(=O)c3ccc(-c4ccccc4)cc3)CC2)cc1F [CBK063108] | 94.5993 |
| COc1ccc(Sc2ncccc2C(F)(F)F)cc1OC [CBK093760] | 113.264 |
| CSc1ccccc1CNC(=O)c1ccc(C)nc1N1CCOCC1 [CBK106224] | 91.3174 |
| O=C1NC(=O)C(CCCCN2CCCC3(CCN(C(=O)c4ccoc4)C3)C2)N1 (stereo not shown) [CBK132833] | 91.0525 |
| O=C(O)c1ccccc1C(=O)Nc1ccc(Oc2cccc3ccccc23)cc1 [CBK265131] | 90.9882 |
| COc1ccc(Br)cc1CNCc1ccc(C(=O)O)cc1 [CBK269449C] | 100.944 |
| CN(C)CC(C)(C)CNC(=O)C1=CC(=O)CC(C)(C)O1 [CBK153291] | 81.4929 |
| CC(C)(C)CC(=O)N1C[C@@H]2C[C@H](C1)c1ccc(NC(=O)Nc3ccccc3)c(=O)n1C2 [CBK289176] | 122.63 |
| CCCCn1c(S)nc2c(-c3ccccc3)c[nH]c2c1=O [CBK288505] | 43.3768 |
| COc1ccc(Br)cc1/C=N/NC(=O)C1CC(c2ccccc2)(c2ccccc2)C1 [CBK263218] | 89.1116 |

| Compound | % of control remaining |
| --- | --- |
| c1ccc(CN2CCN(c3nccnc3OCCN3CCOCC3)CC2)cc1 [CBK082885T] | 73.9342 |
| CS(=O)(=O)c1ccc(Nc2ccc3c(c2)COC2(CCN(C(=O)Cc4ccc(F)cc4F)C2)O3)cc1 (stereo not shown) [CBK131948] | 111.871 |
| Cc1cc2ccccc2n1CCC(=O)NC1CCCOC1 (stereo not shown) [CBK283152] | 96.9927 |
| C=Cn1cccc1C(=O)N1C2CCC1c1cnc3cc(C)nn3c1C2 (stereo not shown) [CBK284382] | 97.2813 |
| Cn1cc(C(=O)NC2CCN(C(=O)c3ccc(C#N)cc3)CC2)cn1 [CBK305683] | 76.9073 |
| Cc1cc(OCC(=O)N(C)C)c2c3c(c(=O)oc2c1)CCCC3 [CBK307189] | 88.0674 |
| O=C(N/N=C/c1cc2c(cc1Cl)OCO2)C(O)c1ccccc1 (stereo not shown) [CBK262177] | 94.5703 |
| CCOC(=O)Nc1ccc2c(c1)N(C(=O)CCN(C)C)c1ccccc1CC2 [CBK278193C] | 103.766 |
| Cc1ccc2[nH]c(-c3ccccc3NC(=O)CCCC(=O)O)nc2c1 [CBK295154] | 108.853 |
| Cc1ccc(-c2nc3ccccc3[nH]2)cc1NC(=O)CSc1ccc(Cl)cc1 [CBK268942] | 104.798 |
| Cc1nnc(N2C(=O)c3oc4ccccc4c(=O)c3C2c2ccc(OCc3ccccc3)cc2)s1 (stereo not shown) [CBK266287] | 126.028 |
| CC(=O)NCCn1nc(-c2ccccc2F)cc1CN(C)C [CBK283473] | 103.878 |
| Cc1cc(C(=O)N2CCC(C(=O)NC(c3cnccn3)c3ccccc3C)CC2)no1 (stereo not shown) [CBK059810] | 89.9896 |
| O=C(O)/C=C/c1cccc(-c2cncc(NCCc3ccncc3)n2)c1 [CBK065358] | 138.805 |
| COc1ccc(C(NC(=O)C2CCN(Cc3ccc4c(c3)OCO4)CC2)c2ccccc2C)cn1 (stereo not shown) [CBK081453T] | 102.758 |
| CCOc1cccc(CNc2ccc(O)cc2)c1OCc1ccc(Cl)cc1Cl [CBK074528] | 68.6993 |
| Cc1nc(C2CCN(C(=O)c3ccnn3C)CC2)c2sccn12 [CBK285203] | 89.3919 |
| O=C(c1ccco1)N1CCC(c2nnc(-c3ccccc3)c(-c3ccccc3)n2)CC1 [CBK286282] | 118.773 |
| CCNc1ncc(C(=O)N2CCC(Nc3cccnc3)CC2)s1 [CBK304047] | 60.4144 |
| Nc1nonc1C(=O)NCCNS(=O)(=O)c1ccc(F)cc1 [CBK265980] | 83.0691 |
| CN1CCCC1C(CCNC1CCCCC1)c1ccccc1 (stereo not shown) [CBK023921C] | 39.321 |
| CCCn1c(O)cc(=O)nc1SCC(=O)N1CCCc2ccccc21 [CBK304977] | 76.3945 |
| CC(Oc1ccc2c(c1)OCO2)C(=O)N1CCc2sccc2C1c1ccccc1 (stereo not shown) [CBK285549] | 108.191 |
| O=C(NCCCN1CCOCC1)Nc1ccccc1F [CBK269233] | 88.3027 |
| Cc1cc(C)nc(SCC(=O)c2ccc(F)cc2)n1 [CBK092116] | 52.5915 |
| CCn1cc(CN(C)Cc2ccon2)c2cc(C(=O)O)ncc21 [CBK307017] | 87.1462 |
| O=C(c1cc(F)cc(F)c1)N1CCC(c2cccnc2)CC1 [CBK283892] | 77.0093 |

| Compound | % of control remaining |
| --- | --- |
| COc1cc(/C=N/Nc2nnn[nH]2)cc2c1OCO2 [CBK262253] | 102.861 |
| O=C(N[C@@H](Cn1cc(Cl)c(=O)[nH]c1=O)C(=O)O)c1cccc(F)c1 [CBK289650] | 123.898 |
| COc1cc(CN2CCN(c3cc(C)ccc3C)CC2)cc([N+](=O)[O-])c1O [CBK261868] | 103.969 |
| CCC(C)NC(=O)c1ccccc1NS(=O)(=O)c1cc(C(=O)O)cs1 (stereo not shown) [CBK295652] | 107.959 |
| COc1cc(NC(=O)N[C@@H]2CN(C)C[C@H]2c2ccc(OC)c(OC)c2)cc(OC)c1 [CBK081112] | 71.5917 |
| Cc1cccc(C2(O)CCN(CC(O)c3ccccc3)CC2)c1 (stereo not shown) [CBK286325] | 98.0789 |
| NNc1nc(-c2ccccc2)cc(-c2ccc(Br)cc2)n1 [CBK261795] | 102.952 |
| O=C(CSc1nsc(SCC(=O)c2ccccc2)n1)c1ccccc1 [CBK264142] | 96.7852 |
| CS(=O)(=O)Nc1ccc2cc(-c3ccc(Oc4ccccc4)cc3)cnc2n1 [CBK085674] | 115.196 |
| FC(F)(F)c1ccnc(OCCN2CCNCC2)c1 [CBK113459] | 105.515 |
| Cc1ccccc1C(=O)NCCNC(=O)c1cccnc1 [CBK269222] | 85.1879 |
| O=C(Nc1ccc([C@@H](O)[C@H]2COCC(=O)N2Cc2ccc(F)cc2)cc1)c1ccccc1 [CBK289061] | 121.322 |
| O=C(C1=C(O)C(=O)N(CCN2CCOCC2)C1c1ccco1)c1cccs1 (stereo not shown) [CBK264506] | 109.438 |
| O=C(NCc1cccs1)c1ccccc1Nc1cccc(C(F)(F)F)c1 [CBK149557] | 55.0903 |
| CC(C)NCC(O)Cn1c2c(c3ccccc31)CCc1c-2cnn1-c1ccccc1 (stereo not shown) [CBK261107] | 42.481 |
| COc1ccc([C@@]23CC[C@@H](NC(=O)Nc4ccc(F)c(F)c4)C[C@@H]2N(C)CC3)cc1O [CBK051630] | 79.1394 |
| O=C(O)Cn1nnc(-c2ccc(C(=O)O)cc2)n1 [CBK267926] | 96.4385 |
| O=C(Nc1ccc(F)cc1Cl)c1cnc2n(c1=O)CCS2 [CBK287382] | 70.576 |
| CN1CC[C@]2(c3ccc4c(c3)nnn4C)CC[C@@H](NC(=O)Nc3cc(F)cc(C(F)(F)F)c3)C[C@H]12 [CBK067800] | 83.3579 |
| C(=C\c1ccccc1)/CN1CCC(Cc2ccccc2)CC1 [CBK126384] | 104.065 |
| CSc1cccc(NC(=S)N2CCCCC2CCN2CCOCC2)c1 (stereo not shown) [CBK028765] | 24.657 |
| Cc1ccc(C(=O)NCc2cccnc2)c(N2CCOCC2)n1 [CBK076400] | 97.3539 |
| CCOC(=O)c1cn(CC)c2cc(N3CCOCC3)c(F)cc2c1=O [CBK307142] | 93.9785 |
| COc1ccc(Nc2n[nH]c3nc(C)cc(=O)n23)cc1 [CBK288117] | 92.5473 |
| CC(Sc1nc(-c2ccccc2F)n[nH]1)C(=O)N1CCNC1=O (stereo not shown) [CBK295594] | 118.731 |
